# Assay results as given in article PMC4336329 (PLoS ONE, 2015).
# About 2,200 (0.71%) of roughly 310,000 compounds showed an effect of 50% or more. The effect is printed as a negative number. This is one part of the list.
# Target: human ether-à-go-go-related gene (hERG) potassium channel (human, UniProt Q12809)
# Experiment: primary screen, population patch clamp on CHO cells stably expressing hERG
# human ether-à-go-go-related gene (hERG) potassium channel, sequence (Q12809 whole entry, looked up): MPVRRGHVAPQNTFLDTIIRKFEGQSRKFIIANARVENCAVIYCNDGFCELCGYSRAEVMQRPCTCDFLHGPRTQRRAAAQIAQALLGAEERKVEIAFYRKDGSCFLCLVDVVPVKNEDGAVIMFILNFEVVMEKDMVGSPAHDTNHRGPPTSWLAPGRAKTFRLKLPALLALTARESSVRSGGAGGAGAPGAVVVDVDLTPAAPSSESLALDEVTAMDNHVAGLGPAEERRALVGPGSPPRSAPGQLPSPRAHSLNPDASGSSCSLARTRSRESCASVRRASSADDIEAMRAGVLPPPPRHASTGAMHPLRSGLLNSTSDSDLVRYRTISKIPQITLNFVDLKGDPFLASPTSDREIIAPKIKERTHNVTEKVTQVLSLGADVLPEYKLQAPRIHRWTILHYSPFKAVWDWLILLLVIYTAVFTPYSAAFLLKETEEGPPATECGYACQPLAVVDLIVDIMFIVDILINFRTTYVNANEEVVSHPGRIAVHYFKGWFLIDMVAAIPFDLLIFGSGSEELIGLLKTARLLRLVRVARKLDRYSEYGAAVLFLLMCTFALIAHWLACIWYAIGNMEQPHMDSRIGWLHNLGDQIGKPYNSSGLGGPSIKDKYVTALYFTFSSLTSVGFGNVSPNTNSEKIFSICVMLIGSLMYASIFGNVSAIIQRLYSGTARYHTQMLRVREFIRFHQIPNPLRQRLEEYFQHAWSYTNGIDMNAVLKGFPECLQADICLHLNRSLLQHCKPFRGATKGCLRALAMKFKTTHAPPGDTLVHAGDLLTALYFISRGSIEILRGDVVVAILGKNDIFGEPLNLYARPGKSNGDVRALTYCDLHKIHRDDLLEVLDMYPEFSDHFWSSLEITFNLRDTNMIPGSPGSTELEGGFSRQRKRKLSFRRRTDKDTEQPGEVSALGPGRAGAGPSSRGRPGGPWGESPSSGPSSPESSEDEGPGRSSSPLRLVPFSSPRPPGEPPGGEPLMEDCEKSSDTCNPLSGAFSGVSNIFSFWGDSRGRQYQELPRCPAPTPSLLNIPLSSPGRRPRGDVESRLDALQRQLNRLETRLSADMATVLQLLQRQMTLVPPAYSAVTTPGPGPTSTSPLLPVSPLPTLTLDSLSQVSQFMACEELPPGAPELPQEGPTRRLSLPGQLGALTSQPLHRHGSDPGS
row,SMILES,"hERG current change (%, negative = inhibition) at 1uM"
1,CC(=O)Nc1ccc(CN2CCN(CC=C(C)C)C(CCO)C2)cc1 (stereo not shown),12.6%
2,O=C(CC(Cc1ccccc1)c1ccco1)NCc1ccco1 (stereo not shown),9.33%
3,COc1cc(F)ccc1S(=O)(=O)NCc1cccnc1,16.2%
4,CCOc1ccc2ccccc2c1/C=N/NC(=O)CC1(C)OCCCO1,11.7%
5,NS(=O)(=O)c1cc(C(=O)OCC(=O)Nc2ccc(N3CCCCC3)cc2)ccc1Cl,10.4%
6,CCN(CC)S(=O)(=O)c1cc(C(=O)c2nccn2C)ccc1Cl,13%
7,COc1ccccc1NC(=O)CSc1nnnn1-c1ccccc1F,6.97%
8,Cn1c(SCC(=O)Nc2cccc(S(=O)(=O)NC3=NCCCCC3)c2)nnc1-c1ccncc1,5.49%
9,CCN(CC(=O)Nc1cc(Cl)ccc1C)C(=O)CCS(=O)(=O)c1ccc(C)cc1,7.96%
10,CCCc1cc(=O)[nH]c(SCC(=O)c2cc(C)n(C(C)COC)c2C)n1 (stereo not shown),3.47%
11,CNC(=O)Nc1nnc(C(C)(C)C)s1,13.9%
12,COc1cccc(N=CC2=C(O)CC(C)(C)CC2=O)c1,2.84%
13,Cc1ccc(-n2c(=S)sc3c(=O)n(-c4ccccc4C)c(SCC(=O)O)nc32)cc1C,15%
14,NCC(c1ccccc1Cl)c1c[nH]c2ccccc12 (stereo not shown),9.03%
15,COc1cc(=O)[nH]c(=O)n1C(=O)Cc1ccccc1,15.3%
16,COc1cccc(N2CC(NS(=O)(=O)c3ccc(Cl)cc3)CC2=O)c1 (stereo not shown),7.63%
17,CC(CC12CC3CC(CC(C3)C1)C2)NCc1ccccc1O.Cl (stereo not shown),19.3%
18,CC#CC(=O)N1CCCC(C(=O)c2ccc(SC)cc2)C1 (stereo not shown),6.72%
19,CC(=Nc1ccc2c(c1)CCC2)c1c(O)n(-c2ccccc2)c(=O)[nH]c1=O,10.4%
20,Cc1ccccc1Nc1cc2ccccc2c(=O)[nH]1,1.06%
21,C=CCn1c(C)c(C(C)=O)c(N2CCCC2)nc1=S,10.8%
22,COc1cc(OC)cc(C(=O)NCC(=O)OCC(=O)N2CCc3ccccc32)c1,7.14%

row,SMILES,"hERG current change (%, negative = inhibition) at 1uM"
1,CCCNc1nc(C)c(C(C)=O)cc1C#N,11.9%
2,CCN(CC)S(=O)(=O)c1ccc(NC2c3ncccc3C(=O)N2Cc2ccccc2)cc1 (stereo not shown),-10%
3,S=C(NCCC(c1ccccc1)c1ccccc1)Nc1ccc(Cl)cc1,12.2%
4,O=C(CCn1c(=O)oc2ccccc21)Nc1nccs1,12.3%
5,Cc1cc(C)c(S(C)(=O)=O)c(Sc2ccc(Cl)cc2)n1,13.3%
6,O=C(c1cc(COc2c(F)cccc2F)on1)N1CCC(c2ccccc2F)C1 (stereo not shown),11%
7,COc1ccc(/C=N/N=C/c2ccc(OC)c(O)c2)cc1O,16.1%
8,O=C(CN(Cc1ccco1)Cc1cccs1)N1CCN(S(=O)(=O)c2cccc(F)c2)CC1,-5.32%
9,CCOC(=O)N1CCN(CCC(=O)Nc2cc(C)ccc2C)CC1,18.9%
10,O=S(=O)(NCC1CCCO1)c1ccc(S(=O)(=O)N(Cc2ccccc2F)C2CCCCC2)cc1 (stereo not shown),0.814%
11,CCn1c(=O)c(C(=O)CN2CCOCC2)c(N)n(Cc2ccccc2)c1=O,-0.674%
12,CC(=O)c1cccc(NC(=O)C2(c3ccccc3)CC2(Cl)Cl)c1 (stereo not shown),0.139%
13,O=C(CCn1ccc2cc(S(=O)(=O)N3CCCC3)ccc21)NCCc1ccccc1,11.5%
14,O=C(Nc1cccnc1)c1cc2c(ccc3ccccc32)o1,9.97%
15,Cc1c(C(=O)C(=O)N2CCCc3ccccc32)c2ccccc2n1C,3.27%
16,Cc1cc(C)c2c(N)c(-c3nc4ccccc4[nH]3)sc2n1,17%
17,O=C(O)c1ccccc1C(=O)c1ccc(Cl)cc1,14.1%
18,NC(=O)c1cnn2c1NC(c1ccc(F)cc1)CC2C(F)(F)F (stereo not shown),-9.89%
19,Cc1occc1C(=O)N1CCN(c2ccc(Cl)cc2)CC1,12.8%
20,COc1ccc(Cc2nnc(SC(C)C(=O)Nc3ccc(F)cc3Cl)o2)cc1 (stereo not shown),11%
21,O=C(CS(=O)(=O)Cc1ccccc1)N1CCN(c2cccc(C(F)(F)F)c2)CC1,-3.7%
22,O=C(NCCCn1ccnc1)Nc1ccc(Cl)c(Cl)c1,-4.67%

row,SMILES,"hERG current change (%, negative = inhibition) at 1uM"
1,CCO[C@@H]1OC(C(=O)NC2CC2)=C[C@H](c2ccccc2)[C@H]1CCCO,13.1%
2,Cc1cccc(C)c1NC(=O)CCCN1CC(C)OC(C)C1 (stereo not shown),8.94%
3,C#CCOCCOCCOCCNc1nc(N2CCOCC2)nc(N2CCN(C(=O)[C@H](Cc3ccc(O)cc3)n3cc([C@@H](N)CC(C)C)nn3)CC2)n1.Cl,0.33%
4,C=CCc1ccccc1OCC(CN1CCCCC1)OC(C)=O.Cl (stereo not shown),-12.5%
5,CCOc1ccc(NC(=O)CNC(=O)c2cn(-c3ccccc3OC)c(=O)c3ccccc23)cc1,8.19%
6,C1COCCO1.COc1ccc(NS(=O)(=O)c2ccc(N3CCOCC3)c(NC(=O)c3ccccc3Cl)c2)cc1,10.8%
7,Cc1cc(N)n(-c2ccc(S(=O)(=O)c3ccc(C(C)C)cc3)cc2)n1,1.96%
8,COc1ccc(NC(=O)c2ccccc2NC(=O)c2ccco2)c(OC)c1,-27.6%
9,O=C(CN1C(=O)c2ccccc2C1=O)Nc1nnc(C2CCCO2)s1 (stereo not shown),14.4%
10,CC(=O)CSc1nnc(C(F)(F)F)n1C,8.35%
11,CCCC1(C(=O)OCC)NC(c2ccc(O)cc2)C2C(=O)N(c3cccc(C(C)=O)c3)C(=O)C21 (stereo not shown),13.8%
12,Cc1ccc(-c2n[nH]c(=S)c3ccccc23)cc1,6.87%
13,CCC1NC(C(=O)O)Cc2c1[nH]c1ccccc21 (stereo not shown),9.76%
14,O=C(c1cccc(C(=O)N2CCN(Cc3ccccc3)CC2)c1)N1CCN(Cc2ccccc2)CC1,4.62%
15,COc1ccc(CN2CCCC(CO)(Cc3ccc(F)cc3F)C2)cc1 (stereo not shown),15.1%
16,Cc1ccccc1CN1C2=NCCN2c2ccccc21.Cl,-13.7%
17,CCC1=NN(C(=O)Cc2ccc([N+](=O)[O-])cc2)C(O)(C(F)(F)F)C1 (stereo not shown),1.5%
18,COc1cc(/C=C(/C#N)C(=O)Nc2ccccc2)c(Br)cc1OCc1ccc(C(=O)O)cc1,4.35%
19,CC1N(O)C2CCCCCC2N1O (stereo not shown),18.5%
20,CC12CCC(=O)N1C(C(=O)Nc1nc3ccc(Cl)cc3s1)CS2 (stereo not shown),19.2%
21,COc1ccc(NS(=O)(=O)c2cccc(C(=O)OCC(=O)N3CCN(c4ccc(OC)cc4)CC3)c2)cc1,6.45%
22,CC1=C(C(=O)Nc2cc(C(=O)N3CCC(C)CC3)ccc2C)SCCO1,16.6%

row,SMILES,"hERG current change (%, negative = inhibition) at 1uM"
1,COc1ccc(NC(=O)Nc2ccc(F)c(F)c2)c(OC)c1,6.37%
2,COc1ccccc1Oc1ccnc2cc(Cl)ccc12,13.2%
3,CCOc1ccc(C(=O)NCC(=O)OCC(=O)Nc2nnc(-c3ccccc3)o2)cc1,5.29%
4,Cc1csc2ncc(C(=O)Nc3ccon3)c(=O)n12,8.38%
5,COc1ccccc1CNC(=O)c1cccs1,12.4%
6,Cc1ccc(CCC(=O)Nc2ccc([N+](=O)[O-])cc2Cl)o1,8.33%
7,Cc1ccc(NC(=O)CCC(=O)N/N=C/c2ccc(O)cc2)cc1,17.8%
8,CCc1nccn1CCC(=O)NC1CC(C)(C)Cc2c1cnn2-c1ccc(OC)cc1 (stereo not shown),6.47%
9,COc1cc(CNc2ncc(-c3ccc(Br)cc3)n2C)cc(OC)c1OC.O=C(O)C(=O)O,-17%
10,COCC(=O)N(CCc1ccc(OC)cc1)Cc1nc2ccccc2c(=O)[nH]1,10.1%
11,COC(=O)CNc1nc(Cl)nc(Nc2ccc(C)cc2)n1,19.5%
12,COc1ccc(CC2(C)OC(c3ccc(Cl)cc3)=NN2C(C)=O)cc1 (stereo not shown),7.04%
13,COc1cc(OC)c(C(=O)OCC(=O)Nc2ccccc2Cl)cc1OC,7.47%
14,O=C(/C=C/c1ccccc1)NC(NC(=S)Nc1cc(Cl)ccc1Cl)C(Cl)(Cl)Cl (stereo not shown),11.1%
15,CSc1nsc(/C=C/Nc2ccc(F)cc2F)c1C#N,4.7%
16,CC(Sc1nnnn1-c1ccc(O)cc1)c1nc2ccccc2c(=O)[nH]1 (stereo not shown),3.95%
17,Cc1cc(/C=N/n2cnnc2)c(C)n1-c1ccc(C(=O)O)cc1,-4.41%
18,Cc1cc(OCC(=O)Nc2ccc(N3CCN(C(=O)c4ccco4)CC3)cc2)cc(C)c1Cl,3.95%
19,COc1ccc2nc(SCC(=O)C(C)(C)C)[nH]c2c1,4.48%
20,O=C(NC1CCCCC1)NC1(C(=O)N2CCN3CCCC3C2)CCCCC1 (stereo not shown),14%
21,CCOc1ccc(/C=C2\SC(=S)N(CC(=O)Nc3ccccn3)C2=O)cc1,6.28%
22,C[C@@H]1O[C@@H](O[C@H]2C[C@@H](O)[C@]3(CO)[C@H]4[C@H](O)C[C@]5(C)[C@@H](C6COC(=O)C6)CC[C@]5(O)[C@@H]4CC[C@]3(O)C2)[C@H](O)[C@H](O)[C@H]1O (stereo partly shown),9.23%
